Source: article PMC6451091
Some of the results follow. For part of these data: At the low end of the ranking, values are background and their order means little. For part of these data: Measured with an extract: partners may take part in the binding.

Tests used:
Conditions in all cases: 20 mM HEPES pH 7.9, 100 mM NaCl, 1 mM DTT, 0.2 mg/mL BSA, 0.02% Triton X-100, 2% milk, 0.4 mg/mL salmon testes DNA; 1 h; temperature not stated; high values mean tight binding; double strand, one strand shown; sequences stand for … in GCCTAGCAC…GTGCTAGGTCTTGATTCGCTTGACGCTGCTG
[1] = target: PU.1 (IVT) (UniProt P17947); assay: protein-binding microarray (PBM)
[2] = target: PU.1 (endogenous, THP-1 nuclear extract) (UniProt P17947); assay: nuclear extract protein-binding microarray (nextPBM)
[3] = target: T1, FLI1 (endogenous, THP-1 nuclear extract) (UniProt Q01543); assay: as above
T1 sequence: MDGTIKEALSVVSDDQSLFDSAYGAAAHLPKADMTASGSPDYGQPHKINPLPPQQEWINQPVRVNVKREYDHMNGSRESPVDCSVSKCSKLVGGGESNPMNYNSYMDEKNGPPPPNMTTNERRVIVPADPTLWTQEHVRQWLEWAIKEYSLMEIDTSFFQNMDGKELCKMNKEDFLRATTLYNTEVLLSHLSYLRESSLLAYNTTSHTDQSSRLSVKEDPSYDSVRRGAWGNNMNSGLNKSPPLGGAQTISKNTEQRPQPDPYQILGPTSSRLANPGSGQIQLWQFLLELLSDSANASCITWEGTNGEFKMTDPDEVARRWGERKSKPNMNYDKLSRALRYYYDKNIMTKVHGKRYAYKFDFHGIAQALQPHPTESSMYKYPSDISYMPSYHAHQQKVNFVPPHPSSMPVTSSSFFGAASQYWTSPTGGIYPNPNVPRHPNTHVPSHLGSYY

[4] = tested on: PU.1 (endogenous, THP-1 nuclear extract) + IRF8 (endogenous, THP-1 nuclear extract); assay: as above

Row | Sequence | binding signal [1] [z-score] | binding signal [2] [z-score] | binding signal [3] [z-score] | binding signal [4] [z-score]
1 | CCACCCTCACTGCCTCTCTG | -0.603 | -0.188 | -0.145 | 2.54
2 | GAATTACCTCATCTTAAAAC | 0.168 | 0.23 | -0.532 | -0.661
3 | TGCTTTTACTTATTTGTGCA | -0.536 | -0.483 | 0.0784 | -1.36
4 | ATTACCAATCGGTTCAGATG | -0.483 | -0.423 | -0.483 | 0.826
5 | TTGGTAAAAGAGCAGCACGA | -0.028 | -0.488 | -0.263 | -0.696
6 | TTATGAAGGTTAGGGAGAAG | 0.34 | 0.618 | -0.627 | -0.301
7 | TGCATGACTGCGTGAAAGAA | 0.608 | 0.0034 | -0.337 | -0.426
8 | CTCATGCTCCAGTTGAAGTT | 0.331 | -0.128 | -0.506 | -0.505
9 | AGTGCTATTAATATGATTCA | 0.117 | -0.00329 | -0.115 | -1.38
10 | CTTCCTCAGCGACCATGGCC | 1.02 | 1.16 | 0.299 | 0.837
11 | TGCACCACCCATTGGATCAT | -0.807 | -0.428 | -0.269 | -0.348
12 | TTGGGTGAAGTGTTCTGTAT | -0.0133 | -0.133 | 0.00434 | 2.39
13 | CTTTGGACTGAGAAGCATCG | -0.523 | -0.236 | 0.0903 | -0.707
14 | CAGGCGAGGTGTTGGAGGAA | 4.86 | 5.29 | 3.57 | 1.29
15 | CTATGTGCTGTGAAATTACA | 0.018 | -0.0807 | -0.191 | 0.0519
16 | TTGAAAAAAAAAAAGAAGCT | 1.88 | 0.627 | -0.0215 | -1.5
17 | CCAGCAGGAACAAAGCAGTG | 0.163 | 1.05 | 0.707 | 0.292
18 | TGTGAAAAATGACAAAGCAC | 0.00629 | -0.298 | -0.428 | -1.06
19 | ACTGGGCCAAAGGTACCTTC | -0.531 | -0.112 | -0.726 | -0.044
20 | TTCGTCATTAGAACTCAGCC | 0.143 | 0.431 | -0.899 | -1.17
21 | CCCCTGCATATTTTTTTGGC | 0.02 | -0.262 | -0.165 | -0.434
22 | CCTCGAACTCACCGCCGCCC | -0.99 | -0.4 | -0.469 | 1.57
23 | ACTTCCCGTCCCCAGACTGG | 3.7 | 3.78 | 3.14 | 0.729
24 | GGGATTACAGGCGTGAGCCA | -0.773 | -0.629 | -0.442 | 0.232
25 | TCCCTTTTAAATTACTCATT | -0.454 | -0.489 | -0.115 | -0.919
26 | CAACAATGTTCACAGCATCT | -0.303 | -0.441 | -0.733 | -0.294

Row | Sequence | binding signal [1] [z-score] | binding signal [2] [z-score] | binding signal [3] [z-score] | binding signal [4] [z-score]
27 | AATTGTTATATTTTCTTGGT | 0.0158 | -0.379 | 0.217 | -0.501
28 | GCAAAATGCTACTTTAGTTG | -0.574 | -0.609 | -0.17 | -0.283
29 | TTCCACCCCCTCAGAGGAAG | 1.84 | 2.01 | 2 | -0.725
30 | GTGATTTGAGCAAGAAATAA | -0.144 | -0.565 | -0.057 | -1.55
31 | TTTCCATTCTTAGTGTCTTG | -0.133 | -0.316 | 0.0634 | 0.631
32 | GAGGGAACTGAAGATCTGAG | -0.208 | 0.439 | 0.0483 | -0.274
33 | GGCTTTGAAATGAATTTTAG | 0.0972 | -0.433 | -0.529 | -1.16
34 | TTCCTGGCCGGCAAATGACT | 2.26 | 2.67 | 4.34 | -0.829
35 | GGGAGTTTTAGAAGTTGGAG | -0.271 | -0.596 | -0.421 | -0.34
36 | GGTCCGTCCTCTTCCGGTGT | 0.224 | 0.239 | 4.51 | 0.368
37 | CCCCTGTGGGTGAGTCAGAG | -0.469 | -0.455 | -0.748 | -0.385
38 | TGGCAGACTGCGTGAAACTA | -0.547 | -0.451 | -0.384 | 2.71
39 | GTCAGAATGAGATTAGTATT | 0.0803 | -0.442 | -0.664 | 0.0407
40 | TTCCGGACCCTGCATTTCAC | 2.18 | 2.85 | 7.45 | -0.413
41 | GTTAACTTTCTAGAAACTTT | 0.0606 | -0.296 | -0.474 | -0.0118
42 | CTCAGCTGAGGAAACTCTGA | 0.274 | 0.403 | 0.611 | -0.7
43 | TCTACTCTCAAGGGCTTTGT | -0.621 | -0.269 | -0.481 | -0.46
44 | CCACGGCGCCCTGCCTAGTT | -0.754 | -0.178 | -0.786 | 1.91
45 | AAAACATAACAGCCACTAAC | -0.179 | -0.287 | -0.263 | -0.586
46 | CTGAGGAAAGTGGCTTGGGT | -0.318 | -0.275 | 0.204 | 1.44
47 | TGAGGGGATCGACATTGAAA | -0.0245 | -0.413 | -0.8 | 4.01
48 | GAAATCAGCAAAGCCAAGCC | -0.64 | -0.513 | -1.47 | -0.686
49 | TTACTCTGTTACAAAATTGC | -0.241 | -0.256 | 0.155 | -0.587
50 | TTACAATCATGGAGGGAGGC | -1.05 | -0.821 | 0.273 | -0.728
51 | AGACATATTCACCACAGACT | 0.159 | -0.405 | -0.527 | -0.0659
